# Reference: the supplement of paper PMC4466236
# Over roughly 33,000 sequences, “E-score (dimensionless, -0.5 to 0.5)” has its median near -0.058; the highest 2% begin near 0.35. Some of the results follow.
# Test system: MvaT
# Test: PBM 8-mer E-score (mean of HK and ME arrays) (E-score (dimensionless, -0.5 to 0.5)); higher = stronger relative binding preference; most listed sequences are background and not binding sites
# Description: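 Protein binding microarray: GST-tagged full-length MvaT (P. aeruginosa PAO1) bound to two universal double-stranded 60-mer arrays (ME and HK), each with a constant 25-mer primer and a variable 35-mer region covering all 8-mers. The 8-mer E-score (rank-based, range -0.5 to 0.5, >0.45 = specific binding) is the mean of the two arrays.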
row,Sequence,PBM 8-mer E-score
1,AGCACTTC,-0.111
2,AAGTGGGG,-0.172
3,CATTAGTA,0.191
4,ACCCATCC,-0.145
5,TCGTTAAA,0.156
6,CACATCTC,-0.124
7,TCATCAAA,0.094
8,TCGATAGA,0.0356
9,AGAGCCCG,-0.211
10,ATTAACAA,0.381
11,GAACACCA,-0.123
12,CCTCCAAG,-0.224
13,ACCGTTAT,0.229
14,ACTCATCA,0.0732
15,AGGCACCA,-0.116
16,AATCGATA,0.214
17,CCTTCCGC,-0.319
18,GAATGACC,-0.0984
19,ACGCCTAC,-0.3
20,AATAGTTA,0.387
21,ATTCAATA,0.309
22,CGATCGAC,-0.109
23,TTCATCAA,0.159
24,TATTCTAA,0.278
25,TAGCATGA,-0.125

row,Sequence,PBM 8-mer E-score
1,CACCTGAG,-0.24
2,CGAATATC,0.0677
3,AGGATAAG,0.0764
4,ACAGGAAT,0.0389
5,GCGGCTAA,-0.119
6,GACCAGGA,-0.274
7,TGGGTGAA,0.102
8,AACCAATG,-0.101
9,AATTATAG,0.37
10,GCGTATGA,0.156
11,AAGCCAAC,-0.0388
12,CCAGTCCC,-0.327
13,TGCCTCCA,-0.234
14,CAGCGTGC,-0.282
15,ATTTTCAC,0.178
16,AGGTAAGA,0.0841
17,CTAGCGAG,-0.101
18,ATCAACAT,0.0394
19,AAGAACGT,-0.0503
20,CCCCATGC,-0.262
21,TTCGTCAA,0.0954
22,CAATTCAG,0.207
23,GTCTAAAC,0.0242
24,ATCAGTAC,0.144
25,CAGACCCG,-0.183

row,Sequence,PBM 8-mer E-score
1,ACGGGCAA,-0.0766
2,CTACTATC,0.183
3,CGTTGGCA,-0.22
4,AACATCGT,0.118
5,GGGGTTGA,-0.0727
6,GATAAACC,0.133
7,GACCTCTC,-0.331
8,CTCGGAAG,-0.0476
9,AACTACCG,0.133
10,CTAGAGAC,-0.156
11,ACGGATTG,-0.0278
12,GATGCTGC,0.0423
13,AAAGGGTG,-0.191
14,CCTACCGA,-0.165
15,CGGGTCGA,-0.149
16,ACATGTGC,-0.159
17,CGGCTTTC,-0.179
18,AGCTAGAG,-0.228
19,ACCCCTCT,-0.132
20,ACTCCTTC,-0.27
21,GAGGTCTA,-0.186
22,ACCGTGTG,-0.273
23,ACTGTCAG,-0.0723
24,GTTAGGCA,-0.0384
25,CGCAATCC,-0.15

row,Sequence,PBM 8-mer E-score
1,AATTACTC,0.263
2,CCACTAGA,-0.0219
3,GCGATGGA,-0.156
4,AGTATATA,0.446
5,CGCCCCAC,-0.277
6,AGCTTGCC,-0.279
7,AGGACTCC,-0.184
8,AACGAGCC,-0.124
9,ATGCCCTA,-0.144
10,CCTCTTCG,-0.264
11,CTTGCCTC,-0.163
12,CCCACGAG,-0.0913
13,ACGTGGAG,-0.153
14,AGACTGTC,-0.0538
15,CCGGCTAC,-0.217
16,CCAAATAG,0.048
17,ATACTGAC,0.134
18,TCGAACGA,-0.105
19,GAGGTATC,-0.196
20,CATAAATA,0.358
21,CGGTGTAC,-0.0511
22,CTGAAAAC,0.113
23,CGGAGTCC,-0.236
24,CGCGGCTA,-0.0237
25,AAGGGCAC,-0.2

row,Sequence,PBM 8-mer E-score
1,GCATTGCA,0.011
2,ACTCATAA,0.0577
3,CTCTAAAG,-0.0253
4,AGCTCATG,-0.256
5,ACGCAACC,-0.0683
6,AAAGGTAG,0.0786
7,CTGCCCCC,-0.322
8,CTGACGCC,-0.204
9,CACTGAAC,0.0731
10,ACGCGGTC,-0.138
11,ATCCCTAG,-0.128
12,ACCACCTA,-0.0787
13,GTATTGAC,0.15
14,ACGACCGA,-0.251
15,GGGGAAAC,0.053
16,ATCCAATG,0.0281
17,CTCATGGA,-0.0725
18,GGGATGTA,-0.0302
19,AAGAGACC,-0.127
20,CCAGGAGC,-0.198
21,GACACTCC,-0.114
22,AAGAGCCA,0.00662
23,GACACATC,-0.0667
24,CTGCGATA,-0.0086
25,CCTTTTAA,0.331

row,Sequence,PBM 8-mer E-score
1,AAGTCCGA,-0.148
2,AGATACGG,-0.112
3,TAAAGGGA,0.0582
4,GATATAGC,0.127
5,CAAGCCCA,-0.254
6,CAATCGAA,-0.026
7,CACCATCA,-0.0135
8,AAGCTGGA,-0.137
9,AACTGGTG,-0.0588
10,GTTTCTCA,-9.41e-05
11,TAGAGGCA,-0.0541
12,CAAGCCCG,-0.307
13,ACTTATAA,0.419
14,TCTGAGAA,-0.0369
15,ATAAGTCA,0.17
16,GAAGTTAC,0.168
17,GATTGTAC,0.161
18,CCAATACA,0.142
19,AGTAGCAG,-0.0622
20,ATCGCGAG,0.0131
21,GGGAGCAC,-0.308
22,CACCATAA,0.0993
23,ATCATTCG,-0.042
24,TACCAGCA,-0.0496
25,AGATGGCG,-0.0778

row,Sequence,PBM 8-mer E-score
1,AGGTGTGG,0.00346
2,ACCTGTGA,-0.184
3,GTCTAGGA,-0.207
4,GTATTTTA,0.37
5,AGTAAATG,0.175
6,AACGATCC,-0.0862
7,ACTTTGAG,0.03
8,CAAGCCGC,-0.254
9,GCTTTGTA,-0.0103
10,ATTGCATG,0.0576
11,CCCTGCCC,-0.27
12,AATGGTCG,-0.118
13,AAGGGGGT,-0.225
14,CAGTCCTC,-0.215
15,ATCCCGTC,-0.218
16,ACGGTACA,0.0904
17,CAAAGGAG,-0.218
18,CATGACGA,-0.0695
19,TCATGAGA,-0.065
20,CACTGATG,-0.06
21,GCGCCGTA,-0.159
22,GACGGCCA,-0.21
23,ATAAAGAG,0.243
24,AAACGTGT,-0.0108
25,ATCCCAGC,-0.193

row,Sequence,PBM 8-mer E-score
1,CTTACCTC,0.0108
2,ACGCTGCG,-0.145
3,CGAAAAAA,0.151
4,AGCCACTC,-0.25
5,GGCATAGA,-0.167
6,GATGTTAC,0.115
7,AAGTAGTC,0.226
8,CAAGGCCG,-0.31
9,TCAGAGGA,-0.198
10,CGCTGCAG,-0.128
11,AAGTGGCT,-0.152
12,CGTCCCTC,-0.271
13,CCGTTTCC,-0.0961
14,CATGTTCG,0.0679
15,GGGATGGA,-0.3
16,TAACGTGA,0.153
17,CCGAAAGC,-0.281
18,GCAGACTA,-0.0219
19,CGAAGCAA,-0.0842
20,ACCCAGTC,-0.131
21,CCTCAACA,-0.112
22,CGCTCAAG,-0.137
23,TCCCAACA,0.111
24,AGTCCTAT,-0.0292
25,CACACTGC,-0.000522

row,Sequence,PBM 8-mer E-score
1,CAGTTCCA,-0.0926
2,AAAATCAC,0.0204
3,CCCGCGAG,-0.105
4,CGAACCAA,-0.113
5,AAAGTTCG,0.303
6,GGACTTAA,0.0977
7,ATTTGCTA,0.152
8,AAAATTTT,0.354
9,AACCGTAG,-0.0784
10,GTAGAAAC,0.215
11,AAGGTGAA,0.0174
12,AGTCAAGA,-0.0115
13,CCGATTGA,-0.0917
14,CCATGGCG,-0.115
15,AACGTGAT,0.0805
16,AAATTTTA,0.35
17,GCGCCACA,-0.225
18,AGACGCCC,-0.287
19,CCAAAATC,0.17
20,CCTATCCC,-0.0455
21,AATTACAG,0.268
22,ATGTGCCA,-0.0332
23,CCACTGGA,-0.239
24,ATCCTGAG,-0.0656
25,CTTAAAGC,-0.00393

row,Sequence,PBM 8-mer E-score
1,GCGTTAAA,0.172
2,AAACCAAT,0.232
3,GGAAACCC,-0.323
4,GCCTTTCC,-0.265
5,GCATATCA,0.0663
6,AGCAGTAT,0.126
7,AACGTATT,0.304
8,GGGGAGAC,-0.218
9,CAGCTAAA,-0.0716
10,CAACATGA,0.157
11,CACAGTGC,-0.217
12,CTCCCGAA,-0.154
13,ATCCACTA,-0.0565
14,CTTCACGC,-0.115
15,CCTTTCCG,-0.074
16,AACTCAGA,0.121
17,AAAATGCA,0.0909
18,ACTTTAAC,0.326
19,ACTGGTTA,-0.00614
20,ACAGGCCA,-0.184
21,ATTTTGGC,0.0549
22,AGAAGTAG,0.00917
23,ATATCCCA,0.172
24,CAGTTGTA,0.0922
25,CGTCAATC,-0.247

row,Sequence,PBM 8-mer E-score
1,ATTTCACC,0.0547
2,CAACGTTC,-0.089
3,TACCCCGA,-0.154
4,GTACAAAA,0.139
5,ACTCAAGG,-0.0759
6,ATCGTGTG,-0.108
7,CTGTTGAA,0.00388
8,AGGTTGGA,-0.0834
9,CTTTCCTA,0.101
10,CATAGCTA,-0.1
11,ATGGAGAG,-0.196
12,CGAGGCCA,-0.218
13,GTCGGATA,-0.0634
14,ACTATATC,0.268
15,CCCGTGAC,-0.261
16,AGGCGACG,-0.145
17,GGGGACCC,-0.266
18,AATCTCCT,-0.109
19,CAGGGCGC,-0.198
20,CGCGGAAC,-0.0582
21,GGCGACAA,0.0266
22,ACAGCCAA,0.141
23,TCAGTCAA,-0.0838
24,GATTGCGC,-0.0694
25,AGCGGAGA,-0.0867

row,Sequence,PBM 8-mer E-score
1,ACAAGGGC,-0.163
2,AGTGTAAG,0.173
3,CCCTAAGG,-0.289
4,CAAGGTAA,-0.0084
5,ATGGATTG,-0.117
6,CTCTTATC,-0.0531
7,CTTATCAA,0.149
8,AAAATCAG,0.0744
9,AGAGAAGC,-0.0705
10,GGCTGGCA,-0.241
11,GCTCTACA,-0.0761
12,AGTACTAC,0.202
13,ATTCATAC,0.164
14,AACCATCA,-0.0905
15,GATTTTAA,0.248
16,ACAACAGG,0.0643
17,CTAAAAAA,0.0548
18,ATGAGTGC,0.0329
19,ATGCAAAT,0.217
20,ACCGTCTC,-0.24
21,CCGTTGAC,-0.2
22,ATGTAAAA,0.247
23,CCTTTCCC,-0.217
24,ATCAAGGA,0.00087
25,ACCGACCA,-0.137

row,Sequence,PBM 8-mer E-score
1,AAAGATCA,0.0885
2,ACACCTAC,-0.0326
3,AGCGGTTA,-0.0779
4,AGGGAGCG,-0.408
5,ATGCCTTC,-0.169
6,CTGGTGTA,0.0332
7,CCATCTCG,-0.185
8,ACGATTGG,-0.0463
9,ATATTCAT,0.245
10,CATACCGG,-0.153
11,GTGAAGGA,-0.187
12,CAAACCGA,0.136
13,CACAGCCC,-0.157
14,GCAAAGAA,0.0997
15,AAAAATTT,0.298
16,ACGAAAAT,0.228
17,ATGAACAC,0.0647
18,GAGCGAGC,-0.273
19,GCTTCGCA,-0.164
20,AACAGGGG,-0.116
21,AGGGCAAG,-0.307
22,ATACGATG,0.0432
23,ACTTCAAG,0.0655
24,ACTGTCTA,0.00521
25,ACGTATGG,-0.0552

row,Sequence,PBM 8-mer E-score
1,TCGTCTAA,-0.0936
2,CCGGGATC,-0.0679
3,GACTCCTC,-0.28
4,AGAGGCCA,-0.0967
5,AGTGCGAG,0.0153
6,ATAGTCTG,0.2
7,CGTATCTC,-0.122
8,AGCCCGAT,-0.192
9,TGTCCCAA,0.187
10,ATCGTGGG,-0.0734
11,ATAGGCAC,-0.0327
12,AGTTAGCA,0.251
13,ACTATACG,0.0773
14,AGCGGTAA,-0.104
15,AATAAAGA,0.344
16,AATGCATA,0.273
17,ACCAGAGG,-0.141
18,ACAATAGG,0.215
19,CGAGTGAG,-0.117
